Test results reported in the supplement of paper PMC3334620.
In all, about 33,000 sequences were measured (“E-score (-0.5 to 0.5)”: median about -0.041, highest 2% from about 0.37 on). This is one part of the list.

target: T1, Ecm22 (UniProt Q05958); assay: PBM E-score (8-mer binding enrichment) (E-score (-0.5 to 0.5)); higher = stronger / more preferred TF binding; most listed sequences are background and not binding sites; details: protein concentration: 200 nM; construct: GST-full length
T1 sequence: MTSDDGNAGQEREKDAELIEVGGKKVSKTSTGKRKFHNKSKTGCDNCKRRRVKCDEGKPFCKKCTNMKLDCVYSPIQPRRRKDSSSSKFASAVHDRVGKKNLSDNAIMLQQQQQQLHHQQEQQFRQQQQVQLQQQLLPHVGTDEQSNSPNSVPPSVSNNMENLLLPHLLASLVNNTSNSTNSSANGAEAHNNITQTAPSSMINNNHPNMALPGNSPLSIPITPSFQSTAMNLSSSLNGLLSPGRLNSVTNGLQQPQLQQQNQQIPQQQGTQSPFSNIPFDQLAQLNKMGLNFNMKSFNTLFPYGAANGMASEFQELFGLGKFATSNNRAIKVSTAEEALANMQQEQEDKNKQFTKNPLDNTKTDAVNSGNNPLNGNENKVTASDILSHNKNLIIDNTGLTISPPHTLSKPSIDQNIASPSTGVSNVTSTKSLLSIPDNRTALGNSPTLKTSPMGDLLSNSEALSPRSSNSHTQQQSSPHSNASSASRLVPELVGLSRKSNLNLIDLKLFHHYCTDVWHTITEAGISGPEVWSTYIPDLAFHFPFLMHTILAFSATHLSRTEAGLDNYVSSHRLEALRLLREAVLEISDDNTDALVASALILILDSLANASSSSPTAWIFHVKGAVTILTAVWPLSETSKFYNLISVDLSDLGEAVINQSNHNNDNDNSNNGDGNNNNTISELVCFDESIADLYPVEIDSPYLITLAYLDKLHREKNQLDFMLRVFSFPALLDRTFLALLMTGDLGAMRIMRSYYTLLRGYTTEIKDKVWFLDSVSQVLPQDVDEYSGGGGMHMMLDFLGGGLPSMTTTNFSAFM
Experimental: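 Universal 'all 10-mer' protein binding microarrays (Agilent AMADID 015681) probed with GST-tagged S. cerevisiae TFs (full-length or DBD) made by in vitro transcription/translation (PURExpress), about 100-200 nM. Bound TF was detected with fluorescent anti-GST. Each ungapped 8-mer (which stands for itself and its reverse complement) is scored by the PBM enrichment score (E-score), a modified Wilcoxon-Mann-Whitney statistic from -0.5 to +0.5, computed with the Universal PBM Analysis Suite. Scale: above 0.35 generally sequence-specific binding.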

First: ATCGAGGA
Second: GACATCGA
The “PBM E-score” value of the first is higher: 0.115 for the first, -0.035 for the second.

First: GTTACGGA
Second: ACACTCAA
The “PBM E-score” value of the first is higher: 0.233 for the first, 0.184 for the second.

Going from TACTCGCA to AAGCTACC, the “PBM E-score” value falls from 0.249 to -0.165.

Compared with AAGGTGCG, GCTGTACC is lower in “PBM E-score” value: 0.147 for the first, -0.175 for the second.

First: CCGGGACA
Second: AGGATTAG
The “PBM E-score” value of the first is higher: -0.057 for the first, -0.0677 for the second.

First: ATTTGTTC
Second: ACTCTCTG
The “PBM E-score” value of the first is higher: 0.207 for the first, -0.0894 for the second.

Going from CGCACGCC to GGTCGTAA, the “PBM E-score” value rises from 0.0673 to 0.417.

Going from GAGTGTCC to AGGCATAC, the “PBM E-score” value rises from -0.0357 to -0.0177.

Compared with ACATTCAA, AATAACCT is lower in “PBM E-score” value: -0.116 for the first, -0.148 for the second.

Going from AATGGCCC to CGGAATGC, the “PBM E-score” value rises from -0.311 to -0.154.

Compared with ACGTCACG, CCATCATA is lower in “PBM E-score” value: -0.12 for the first, -0.352 for the second.

Compared with GAGGTGAC, AGCTTACC is lower in “PBM E-score” value: -0.047 for the first, -0.139 for the second.

Compared with AAAGCAGT, GAGACAAC is higher in “PBM E-score” value: -0.132 for the first, 0.129 for the second.

Going from AGGTTAAT to ACTCAGAA, the “PBM E-score” value falls from -0.0751 to -0.0905.

Compared with CAGACCTG, CTTATCTC is higher in “PBM E-score” value: -0.0891 for the first, 0.0813 for the second.

First: AACGAGGG
Second: CCCATGAC
The “PBM E-score” value of the first is higher: 0.439 for the first, -0.0348 for the second.

First: AAGGTATT
Second: ACCGGATA
The “PBM E-score” value of the first is lower: -0.07 for the first, 0.00383 for the second.

Going from AAAACGTT to CAATAGTC, the “PBM E-score” value falls from 0.0503 to -0.185.

Compared with GTGGACTA, GGCAGGCA is lower in “PBM E-score” value: -0.152 for the first, -0.31 for the second.

Going from CCTCAAGC to AAGCGGTG, the “PBM E-score” value rises from -0.229 to -0.0233.

First: CAAATAAA
Second: GTGCGGGA
The “PBM E-score” value of the first is lower: 0.0329 for the first, 0.0471 for the second.

First: ACGCGCCT
Second: AGTGCGCG
The “PBM E-score” value of the first is higher: 0.189 for the first, -0.0783 for the second.

Going from GTGATCAA to CTAATGAG, the “PBM E-score” value rises from -0.113 to -0.0357.

Compared with ATGTTACC, ATAGCACG is lower in “PBM E-score” value: 0.0884 for the first, -0.0226 for the second.

First: CCGCACGA
Second: CTGTAGGA
The “PBM E-score” value of the first is higher: 0.106 for the first, -0.0162 for the second.

Going from AAGCACTT to AGAGCCAC, the “PBM E-score” value rises from -0.125 to -0.096.

Compared with AAGAGGCG, GCCTAGCC is lower in “PBM E-score” value: 0.0152 for the first, -0.318 for the second.

First: CGTGACCA
Second: AGCTCATA
The “PBM E-score” value of the first is lower: -0.21 for the first, -0.187 for the second.

First: ACACAACT
Second: TTCGTAAA
The “PBM E-score” value of the first is lower: 0.0288 for the first, 0.456 for the second.

First: AGGGAGCA
Second: AGCATTGA
The “PBM E-score” value of the first is lower: -0.183 for the first, -0.0648 for the second.

First: GCGAGCCC
Second: AATAGTCG
The “PBM E-score” value of the first is higher: 0.179 for the first, 0.177 for the second.

Going from CCTAGATA to CGGTAACA, the “PBM E-score” value rises from -0.0259 to 0.0257.

First: GCCCGTGA
Second: CACATCGA
The “PBM E-score” value of the first is lower: -0.115 for the first, 0.083 for the second.

Going from AAGAACAT to CAAAGTTG, the “PBM E-score” value falls from -0.0641 to -0.214.

Going from ATATTCGC to AAGGGGAT, the “PBM E-score” value falls from 0.17 to -0.214.

Compared with GTCCGAGA, AACTCACT is lower in “PBM E-score” value: 0.253 for the first, -0.267 for the second.

Compared with TCCCCGCA, CGGCTAGC is lower in “PBM E-score” value: 0.0495 for the first, -0.0355 for the second.

Going from GGCCAAAC to AGTCTTGG, the “PBM E-score” value falls from 0.107 to -0.126.

First: CATTGGCA
Second: TCATGCAA
The “PBM E-score” value of the first is lower: -0.215 for the first, -0.0223 for the second.

Compared with CTGAATAC, AAATCTCC is lower in “PBM E-score” value: 0.0937 for the first, -0.239 for the second.

Compared with CAGAAAAG, AAGTCGAT is higher in “PBM E-score” value: 0.0159 for the first, 0.0277 for the second.

Going from CAGATAGG to AGCGATAC, the “PBM E-score” value rises from -0.0702 to 0.197.

Going from GAAATCGC to ACGCGCAG, the “PBM E-score” value falls from 0.0812 to -0.109.
